Values joined by “and” are separate entries in the source; they are usually repeats but may differ in a detail not shown here. Identical values can stand only once. The entries are a selection whose mix differs from that of the whole data set. Results filed as inconclusive are left out. A structure can be active in one record and inactive in another. Active and inactive are the calls of the source. The calls were made as follows: active = hit-call score of the fitted dose curve at least 0.9, where 1 is the maximum; inconclusive = response in the unintended direction; inactive = score below 0.9.

One may read the AC50 as the midpoint of the concentration-response curve, whichever way the signal moves.

UniProt P37231, sequence (P37231 whole entry, looked up): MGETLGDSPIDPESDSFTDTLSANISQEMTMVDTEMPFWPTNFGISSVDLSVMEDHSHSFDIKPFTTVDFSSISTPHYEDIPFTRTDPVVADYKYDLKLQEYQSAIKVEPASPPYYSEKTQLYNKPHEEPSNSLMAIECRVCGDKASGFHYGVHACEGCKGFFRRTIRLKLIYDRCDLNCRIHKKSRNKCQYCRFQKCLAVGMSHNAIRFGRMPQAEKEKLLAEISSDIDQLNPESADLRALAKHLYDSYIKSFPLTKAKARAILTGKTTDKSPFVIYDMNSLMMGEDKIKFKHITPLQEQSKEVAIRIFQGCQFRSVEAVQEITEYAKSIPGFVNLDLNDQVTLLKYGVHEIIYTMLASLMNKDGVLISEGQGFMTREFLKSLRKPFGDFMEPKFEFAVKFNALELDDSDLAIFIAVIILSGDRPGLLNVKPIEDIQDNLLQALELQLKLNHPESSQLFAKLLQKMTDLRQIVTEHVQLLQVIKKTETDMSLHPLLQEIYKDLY

The target of this experiment is Peroxisome proliferator-activated receptor gamma (Homo sapiens) (UniProt P37231). As to the kind of experiment: ATG_PPARg_TRANS: Attagene TRANS-FACTORIAL HepG2 Assay for human Peroxisome Proliferator-activated Receptor-gamma (PPARg) (AID 2283007). The method, then:
ATG_TRANS is a cell-based, multiplexed-readout assay that uses HepG2, a human liver cell line, with measurements taken at 24 hours after chemical dosing in a 24-well plate.ATG_PPARg_TRANS is one of 30 assay component(s) measured or calculated from the ATG_TRANS assay. It is designed to make measurements of mRNA induction, a form of inducible reporter, as detected with fluorescence intensity signals by Reverse transcription polymerase chain reaction (RT-PCR) and Capillary electrophoresis technology.Data from the assay component ATG_PPARg_TRANS was analyzed into 1 assay endpoint. This assay endpoint, ATG_PPARg_TRANS, was analyzed in the positive analysis fitting direction relative to DMSO as the negative control and baseline of activity. Using a type of inducible reporter, measures of mRNA for gain-of-signal activity can be used to understand the reporter gene at the transcription factor-level as they relate to the gene PPARG. Furthermore, this assay endpoint can be referred to as a primary readout, because this assay has produced multiple assay endpoints where this one serves a reporter gene function. To generalize the intended target to other relatable targets, this assay endpoint is annotated to the nuclear receptor intended target family, where the subfamily is non-steroidal.
Human liver HepG2 cells are transiently transfected with multiple reporter transcription units (MRTUs) in 6-well plates using FuGene 6 reagent (Roche; 3 ml FuGene/1 mg DNA). The MRTU constructs are regulated by a cis-regulating element (promoter). […] A major difference between the CIS and TRANS system is that in CIS activities of endogenous TFs are measured, whereas the TRANS assay evaluates changes in activities of exogenous, chimeric NR-Gal4 proteins. […] At the end of 24 hour incubation, total RNA was isolated using TriZol reagent (Invitrogen). The isolated RNA is then reverse-transcribed using oligo(dT) primer and Mo-MLV reverse transcriptase (Invitrogen) with DNAse I (Ambion) treatment for 30 min. The one-tenth of the produced cDNA was amplified by PCR using Taq DNA polymerase (Invitrogen) and two reporter sequence-specific primers. The PCR products were fluorescently labeled by primer extension with 6-arboxyfluorescein (6-FAM) 5'-labeled reporter sequence-specific primer (2 min at 95 C, 20 s at 68 C and 10 min at 72 C) and these products were digested with 5U of HpaI (New England Biolabs) for 2h at 37 C. The fragments were purified using Qiaquick PCR columns (Qiagen), analyzed on an ABI 3130xL genetic analyzer (Applied Biosystems) with peak positions identified by using a set of X-rhodamine (ROX)-labeled MapMarker1000 molecular weight standards (BioVentures). The raw capillary electrophoresis data was processed using Attagraph software (Attagene).
Consider `O=C(O)C(F)(F)C(F)(F)C(F)(F)C(F)(F)C(F)(F)C(F)(F)C(F)(F)C(F)(F)C(F)(F)F`, for which the AC50 was active: 16.1 µM.

Consider `Clc1ccc(C2(Cn3cncn3)CC(Br)CO2)c(Cl)c1` (stereo unspecified), for which the outcome was inactive.

Regarding `C=CC1(C)OC(=O)N(c2cc(Cl)cc(Cl)c2)C1=O` (stereo unspecified), the AC50 was active: 27.1 µM.

For the compound `O=S(=O)(O)C(F)(F)C(F)(F)C(F)(F)C(F)(F)C(F)(F)C(F)(F)C(F)(F)C(F)(F)F`, the AC50 is active: 33.4 µM and active: 32.8 µM.

For `Oc1ccc(Cl)cc1Cc1ccccc1`, the AC50 was active: 11.2 µM.

On to `c1cc(OCC2CO2)ccc1Cc1ccc(OCC2CO2)cc1` (stereo unspecified), for which the AC50 was active: 33.4 µM.

On to `CCC(C)n1c(=O)[nH]c(C)c(Br)c1=O` (stereo unspecified), for which the compound was classed as inactive.

For the compound `CNC(=O)Oc1cc(C)c(SC)c(C)c1`, the AC50 was active: 19.8 µM.

Consider `COc1nn(CSP(=S)(OC)OC)c(=O)s1`, for which the AC50 was active: 28.4 µM.

Take `O=C(O)C1(c2ccc3c(c2)OC[C@H](Cc2ccc(-c4ccccc4)cc2)[C@H]3O)CCCC1`: the AC50 is active: 4.72 µM.

Take `O=S(=O)(O)C(F)(F)C(F)(F)C(F)(F)C(F)(F)C(F)(F)C(F)(F)F`: the half-maximal activity concentration (AC50) was active: 80.3 µM.
